# Test results from the supplement of paper PMC11741623.
# The other results are listed elsewhere or left out. Interaction screen of human proteins with wild-type SARS-CoV-2 proteins by split-DHFR complementation in yeast, 1 µg/mL methotrexate. Value = fitness of the pair (three or more lineages) minus that of the viral protein without a human partner, on a scale set by negative (0) and fused positive (1) controls, mean of up to three cultures; higher = more likely to interact. Active = false discovery rate below 0.05 (one-sided t-test) in at least one culture. Nearly all pairs are not hits, and differences among them are mostly noise (correlation between cultures about 0.3); most hits were seen in one culture only. Human sequences are the Swiss-Prot entries looked up by gene name; the clone may be another isoform. NSP2 values were corrected by the authors for a growth advantage. Listed are human proteins with a hit and a random twelfth of the others.
# B1: KIR3DS1, Q14943 (protein)
# chain: MLLMVVSMACVGLFLVQRAGPHMGGQDKPFLSAWPSAVVPRGGHVTLRCHYRHRFNNFMLYKEDRIHVPIFHGRIFQEGFNMSPVTTAHAGNYTCRGSHPHSPTGWSAPSNPMVIMVTGNHRKPSLLAHPGPLVKSGERVILQCWSDIMFEHFFLHREWISKDPSRLVGQIHDGVSKANFSIGSMMRALAGTYRCYGSVTHTPYQLSAPSDPLDIVVTGLYEKPSLSAQPGPKVQAGESVTLSCSSRSSYDMYHLSREGGAHERRLPAVRKVNRTFQADFPLGPATHGGTYRCFGSFRHSPYEWSDPSDPLLVSVTGNPSSSWPSPTEPSSKSGNLRHLHILIGTSVVKIPFTILLFFLLHRWCSNKKKCCCNGPRACREQK
# B2: C5orf24, Q7Z6I8 (protein)
# chain: MMHPVASSNPAFCGPGKPSCLNEDAMRAADQFDIYSSQQSKYSHTVNHKPMVCQRQDPLNETHLQTTSGRSIEIKDELKKKKNLNRSGKRGRPSGTTKSAGYRTSTGRPLGTTKAAGFKTSPGRPLGTTKAAGYKVSPGRPPGSIKALSRLADLGYGCGTAAFPYPMMHGRAVHGVEETSSEVKPPNE
# B3: FUK, Q8N0W3 (protein)
# chain: MEQPKGVDWTVIILTCQYKDSVQVFQRELEVRQKREQIPAGTLLLAVEDPEKRVGSGGATLNALLVAAEHLSARAGFTVVTSDVLHSAWILILHMGRDFPFDDCGRAFTCLPVENPEAPVEALVCNLDCLLDIMTYRLGPGSPPGVWVCSTDMLLSVPANPGISWDSFRGARVIALPGSPAYAQNHGVYLTDPQGLVLDIYYQGTEAEIQRCVRPDGRVPLVSGVVFFSVETAERLLATHVSPPLDACTYLGLDSGARPVQLSLFFDILHCMAENVTREDFLVGRPPELGQGDADVAGYLQSARAQLWRELRDQPLTMAYVSSGSYSYMTSSASEFLLSLTLPGAPGAQIVHSQVEEQQLLAAGSSVVSCLLEGPVQLGPGSVLQHCHLQGPIHIGAGCLVTGLDTAHSKALHGRELRDLVLQGHHTRLHGSPGHAFTLVGRLDSWERQGAGTYLNVPWSEFFKRTGVRAWDLWDPETLPAEYCLPSARLFPVLHPSRELGPQDLLWMLDHQEDGGEALRAWRASWRLSWEQLQPCLDRAATLASRRDLFFRQALHKARHVLEARQDLSLRPLIWAAVREGCPGPLLATLDQVAAGAGDPGVAARALACVADVLGCMAEGRGGLRSGPAANPEWMRPFSYLECGDLAAGVEALAQERDKWLSRPALLVRAARHYEGAGQILIRQAVMSAQHFVSTEQVELPGPGQWVVAECPARVDFSGGWSDTPPLAYELGGAVLGLAVRVDGRRPIGARARRIPEPELWLAVGPRQDEMTVKIVCRCLADLRDYCQPHAPGALLKAAFICAGIVHVHSELQLSEQLLRTFGGGFELHTWSELPHGSGLGTSSILAGTALAALQRAAGRVVGTEALIHAVLHLEQVLTTGGGWQDQVGGLMPGIKVGRSRAQLPLKVEVEEVTVPEGFVQKLNDHLLLVYTGKTRLARNLLQDVLRSWYARLPAVVQNAHSLVRQTEECAEGFRQGSLPLLGQCLTSYWEQKKLMAPGCEPLTVRRMMDVLAPHVHGQSLAGAGGGGFLYLLTKEPQQKEALEAVLAKTEGLGNYSIHLVEVDTQGLSLKLLGTEASTCCPFP
# B4: FGF10, O15520 (protein)
# chain: MWKWILTHCASAFPHLPGCCCCCFLLLFLVSSVPVTCQALGQDMVSPEATNSSSSSFSSPSSAGRHVRSYNHLQGDVRWRKLFSFTKYFLKIEKNGKVSGTKKENCPYSILEITSVEIGVVAVKAINSNYYLAMNKKGKLYGSKEFNNDCKLKERIEENGYNTYASFNWQHNGRQMYVALNGKGAPRRGQKTRRKNTSAHFLPMVVHS
# Biological target: SARS-CoV-2 E
# Assay: yeast fitness gain over the viral ORF with no human partner (scaled fitness); higher = more likely to interact
# Experimental: (§1)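 Split mouse DHFR complementation in pooled diploid yeast: human ORFeome clones carry one fragment and viral ORFs the other; barcoded lineages compete in 1 µg/mL methotrexate and fitness is read by barcode sequencing in up to three cultures.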
row,Binder,yeast fitness gain
1,B1,inactive: -0.0131
2,B2,inactive: -0.0251
3,B3,inactive: -0.0545
4,B4,inactive: 0.000838

# Biological target: SARS-CoV-2 M
# Assay: as above
# Experimental: as §1
row,Binder,yeast fitness gain
1,B1,inactive: -0.0899
2,B2,inactive: -0.0606
3,B3,inactive: -0.0157
4,B4,inactive: -0.0388

# Biological target: SARS-CoV-2 N
# Assay: as above
# Experimental: as §1
row,Binder,yeast fitness gain
1,B1,inactive: 0.0449
2,B2,inactive: -0.00645
3,B3,inactive: 0.0434
4,B4,inactive: 0.0586

# Biological target: SARS-CoV-2 NSP1
# Assay: as above
# Experimental: as §1
row,Binder,yeast fitness gain
1,B1,inactive: 0.0348
2,B3,inactive: 0.0722
3,B4,inactive: 0.0218

# Biological target: SARS-CoV-2 NSP10
# Assay: as above
# Experimental: as §1
row,Binder,yeast fitness gain
1,B1,inactive: -0.00471
2,B2,inactive: 0.0169
3,B3,inactive: -0.00116
4,B4,inactive: -0.0309

# Biological target: SARS-CoV-2 NSP12
# Assay: as above
# Experimental: as §1
row,Binder,yeast fitness gain
1,B1,inactive: 0.0458
2,B2,inactive: -0.219
3,B3,inactive: -0.0376
4,B4,inactive: 0.0761

# Biological target: SARS-CoV-2 NSP13
# Assay: as above
# Experimental: as §1
row,Binder,yeast fitness gain
1,B1,inactive: -0.0245
2,B2,inactive: -0.0174
3,B3,inactive: -0.0181
4,B4,inactive: -0.00699

# Biological target: SARS-CoV-2 NSP15
# Assay: as above
# Experimental: as §1
row,Binder,yeast fitness gain
1,B1,inactive: -0.0435
2,B3,inactive: 0.0273
3,B4,inactive: 0.0155

# Biological target: SARS-CoV-2 NSP16
# Assay: as above
# Experimental: as §1
row,Binder,yeast fitness gain
1,B1,inactive: -0.0581
2,B2,inactive: 0.0612
3,B3,inactive: 0.058
4,B4,inactive: -0.0452

# Biological target: SARS-CoV-2 NSP2
# Assay: as above
# Experimental: as §1
row,Binder,yeast fitness gain
1,B1,inactive: -0.144
2,B2,inactive: -0.376
3,B3,inactive: -0.102
4,B4,inactive: -0.174

# Biological target: SARS-CoV-2 NSP4
# Assay: as above
# Experimental: as §1
row,Binder,yeast fitness gain
1,B1,inactive: 0.0869
2,B4,inactive: -0.0106

# Biological target: SARS-CoV-2 NSP5
# Assay: as above
# Experimental: as §1
row,Binder,yeast fitness gain
1,B1,inactive: -0.0626
2,B2,inactive: 0.116
3,B3,inactive: 0.0555
4,B4,inactive: -0.00909

# Biological target: SARS-CoV-2 NSP6
# Assay: as above
# Experimental: as §1
row,Binder,yeast fitness gain
1,B1,inactive: -0.059
2,B3,inactive: -0.0436
3,B4,inactive: 0.015

# Biological target: SARS-CoV-2 NSP7
# Assay: as above
# Experimental: as §1
row,Binder,yeast fitness gain
1,B1,inactive: 0.00541
2,B2,inactive: -0.154
3,B3,inactive: -0.0704
4,B4,inactive: 0.0783

# Biological target: SARS-CoV-2 NSP8
# Assay: as above
# Experimental: as §1
row,Binder,yeast fitness gain
1,B1,inactive: 0.0794
2,B3,inactive: 0.0166
3,B4,inactive: 0.0433

# Biological target: SARS-CoV-2 NSP9
# Assay: as above
# Experimental: as §1
row,Binder,yeast fitness gain
1,B1,inactive: 0.0262
2,B3,inactive: -0.129
3,B4,inactive: -0.105

# Biological target: SARS-CoV-2 ORF10
# Assay: as above
# Experimental: as §1
row,Binder,yeast fitness gain
1,B1,inactive: -0.0261
2,B2,inactive: -0.00196
3,B3,inactive: 0.0114
4,B4,inactive: -0.00547

# Biological target: SARS-CoV-2 ORF3A
# Assay: as above
# Experimental: as §1
row,Binder,yeast fitness gain
1,B1,inactive: -0.0293
2,B3,inactive: 0.0857
3,B4,inactive: 0.0134

# Biological target: SARS-CoV-2 ORF3B
# Assay: as above
# Experimental: as §1
row,Binder,yeast fitness gain
1,B1,inactive: 0.0164
2,B2,inactive: -0.264
3,B3,inactive: 0.00965
4,B4,inactive: -0.0187

# Biological target: SARS-CoV-2 ORF6
# Assay: as above
# Experimental: as §1
row,Binder,yeast fitness gain
1,B1,inactive: -0.00273
2,B2,inactive: 0.00252
3,B3,inactive: 0.00795
4,B4,inactive: 0.00541

# Biological target: SARS-CoV-2 ORF7A
# Assay: as above
# Experimental: as §1
row,Binder,yeast fitness gain
1,B1,inactive: -0.0804
2,B2,inactive: -0.0739
3,B3,inactive: -0.0348
4,B4,inactive: 0.0198

# Biological target: SARS-CoV-2 ORF7B
# Assay: as above
# Experimental: as §1
row,Binder,yeast fitness gain
1,B1,inactive: -0.0843
2,B2,inactive: -0.261
3,B3,inactive: -0.00244
4,B4,inactive: 0.0393

# Biological target: SARS-CoV-2 ORF8
# Assay: as above
# Experimental: as §1
row,Binder,yeast fitness gain
1,B1,inactive: 0.0192
2,B2,inactive: -0.0832
3,B3,inactive: -0.0282
4,B4,inactive: 0.0148

# Biological target: SARS-CoV-2 ORF9B
# Assay: as above
# Experimental: as §1
row,Binder,yeast fitness gain
1,B1,inactive: -0.00794
2,B2,inactive: -0.017
3,B3,inactive: 0.0153
4,B4,inactive: 0.0261

# Biological target: SARS-CoV-2 ORF9Bwu (the 73-codon ORF)
# Assay: as above
# Experimental: as §1
row,Binder,yeast fitness gain
1,B1,inactive: -0.061
2,B3,inactive: -0.0133
3,B4,inactive: -0.0362

# Biological target: SARS-CoV-2 S
# Assay: as above
# Experimental: as §1
row,Binder,yeast fitness gain
1,B1,inactive: 0.0053
2,B2,inactive: 0.089
3,B3,inactive: 0.0282
4,B4,inactive: 0.0111

# Biological target: SARS-CoV-2 NSP14
# Assay: as above
# Experimental: as §1
row,Binder,yeast fitness gain
1,B3,inactive: 0.0916
2,B4,inactive: -0.282
